Among all 44,000 compounds or so, about 340 (0.77%) were called active. Inconclusive results (about 5%) are left out. The call rests on the fitted dose curve; in most records, active means well fitted inhibition curve with a large enough effect; inconclusive means small, poorly fitted or top-dose-only effect; inactive means flat fitted curve, though single readings scatter. The list shows a part of the results.
Test: Acumen qHTS Assay for Inhibitors of the mTORC1 Signaling Pathway in MEF (Tsc2-/-, p53-/-) Cells: Sytravon;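 further: plate controls were DMSO for no effect and rapamycin for full effect; nearly all actives have a fitted effect of over 50% in size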
Conditions: phospho-rpS6 immunofluorescence/PI, 24 h; series mostly up to 38.3 µM; activity change, negative = inhibition: at the top concentration
Method in brief: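 Read-out: phospho-S6 Alexa-488 intensity over PI intensity per well, scored as % active cells using thresholds from rapamycin (7.5 nM) and DMSO controls. Tsc2-/-, p53-/- MEFs exposed to compound for 24 h; PI cell count recorded as viability.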

Activity change, negative = inhibition, inactive:
Cc1ccc(CNC(=O)c2ccc(-c3nc(CN4CCc5ccccc54)c(C)o3)cc2)cc1 2.55%
CCCCNC(=O)c1ccc2c(=O)n(-c3ccccc3)c(=O)[nH]c2c1 -1.3%
O=C(NCc1ccc(Cl)cc1)C(=O)NCC(c1ccco1)S(=O)(=O)c1cccs1 (stereo unspecified) -3.23%
CCOC(=O)c1ccc(NC(=O)C2CCN(S(=O)(=O)c3ccc(C)cc3)CC2)cc1 -3.42%
COc1ccccc1CNC(=O)CS(=O)Cc1nc(-c2ccc(OC)c(OC)c2)oc1C (stereo unspecified) 3.52%
CC(=O)c1nn(-c2ccc(OC(F)(F)F)cc2)nc1Nc1ccc(C)cc1 1.59%
CCC1CN(C(=O)N2CCC(C(=O)O)CC2)c2cc(C)ccc2O1 (stereo unspecified) -0.918%
Cc1ccc(CCNC(=O)c2ccc(CSCc3ccccc3C)o2)cc1 -11.3%
COc1ccc(Nc2cc(C)c3cc(NC(=O)Cc4c(F)cccc4Cl)ccc3n2)cc1 -4.69%
CCN(Cc1ccccc1)C(=O)C1CCN(S(=O)(=O)c2c(C)noc2/C=C/c2ccc(C)cc2)CC1 -9.3%
Cc1ccc2nc(-c3ccc(NC(=O)COc4ccc(Cl)c(C)c4)cc3)sc2c1 -10.9%
COc1ccccc1CNC(=O)c1sc2nc3n(c(=O)c2c1C)CCC3 2.79%
CCOc1ccc(CNS(=O)(=O)c2ccc(-c3cc(C(F)(F)F)on3)s2)cc1 -8.68%
CCn1c(SCc2ccccc2F)nc(=O)c2c(C(=O)OC)cc(C3CC3)nc21 2.52%
CCCNc1ccc(-c2nc(-c3ccncc3)no2)cc1[N+](=O)[O-] 1.59%
CCOc1ccc(-c2cc(C(=O)NCc3ccc(C)cc3)c3ccccc3n2)cc1 6.74%
CCOc1ccc(Cl)cc1C1CC(=O)Nc2cc(OC)c(OC)c(OC)c21 (stereo unspecified) 4.68%
Cc1cccc(N2CCN(C(=O)c3ccc(NC(=O)c4nsc5ccccc45)cc3)CC2C)c1 (stereo unspecified) -22.1%
CCOC(=O)C1CCCN(C(=O)Cn2ncc3c([nH]c4ccc(C)cc43)c2=O)C1 (stereo unspecified) 6.88%
CCCC(CCC)C(=O)Nc1cccc(-c2cn3cccnc3n2)c1 -2.14%
Cc1ccc(C)c(N2CCN(C(=O)c3ccc4[nH]c(C)c(C)c4c3)CC2)c1 -15.8%
COC(=O)c1c(NC(=O)CCCOc2ccccc2C)sc2c1CCC(C)C2 (stereo unspecified) -4.6%
Cc1ccc(OCc2nc(-c3ccc(C(=O)NCCc4ccc(S(N)(=O)=O)cc4)cc3)oc2C)cc1 -1.86%
COc1ccccc1CNC(=O)CN1C(=O)CCc2cc(S(=O)(=O)N3CCOCC3)ccc21 0%
O=C(Nc1ccc2nc(SCC(=O)N3CCCC3)sc2c1)c1ccccc1F 0.0925%
COc1cc2[nH]c(=O)n(CCCC(=O)NCc3ccccc3)c(=O)c2cc1OC -7.54%
Cc1ccc(NC(=O)CN2C(=O)CCc3cc(S(=O)(=O)N4CCCCC4)ccc32)cc1N(C)C 13.9%
CC1CN(C(=O)N2CCC(C(=O)NCc3ccco3)CC2)c2cc(Cl)ccc2O1 (stereo unspecified) 4.77%
CCOc1ccc(NC(=O)CNS(=O)(=O)c2ccc(Br)s2)cc1 -17.3%
O=C(CSc1nc(-c2cccs2)nc2cc(=O)[nH]n12)Nc1ccc(F)cc1 6.05%
CCOC(=O)c1sc2ccccc2c1S(=O)(=O)N1CCN(c2ccccc2)CC1 -10%
COc1ccc(-c2noc(CSc3nnc(-c4ccc(Cl)cc4)n3C)n2)cc1OC 1.7%
CCc1cnc2c(c1SCC(=O)Nc1cc(Cl)ccc1OC)c(=O)n(C)c(=O)n2C -5.86%
CCOC(=O)c1cnc2c(C(F)(F)F)cccc2c1Nc1cccc(C(=O)OC)c1 1.38%
CCOc1ccccc1NC(=O)CSc1nc2c(oc3ccccc32)c(=O)n1Cc1ccco1 -3.67%
Cc1ccc(CNC(=O)C2CCCN(S(=O)(=O)c3ccc4c(ccn4C)c3)C2)cc1 (stereo unspecified) 5.43%
CCCCN(CCCC)CCNC(=O)c1cc(=O)[nH]c2ccc(S(=O)(=O)N3CCCCCC3)cc12 -21.8%
CC(C)c1ccc(NC(=O)CSc2nc(=O)n(Cc3cccnc3)c3c2CCC3)cc1 -4.98%
CCc1ccc(CNC(=O)C2CCN(C(=O)N3CC(CC)Oc4ccc(C)cc43)CC2)cc1 (stereo unspecified) 4.18%
Cc1cc(C)c(NC(=O)CSc2ncc(S(=O)(=O)c3ccc(C(C)(C)C)cc3)c(=O)[nH]2)c(C)c1 0.177%
O=C(NC1CCCC1)c1ccc2c(c1)N(Cc1ccccc1Cl)C(=O)c1ccccc1S2 0.57%
CCc1ccccc1Nc1nn2c(=O)c3ccc(C(=O)NC4CCCCC4)cc3nc2s1 -12.2%
CCOC(=O)c1c(N)n(-c2cccc(C)c2C)c2nc3ccccc3nc12 2.65%
Cc1ccn2c(=O)c(C(=O)NCc3ccccc3Cl)c(O)nc2c1 0.0496%
COc1cc(OC)c(NC(=O)c2c3c(nn2C)-c2ccccc2SC3)cc1Cl 1.3%
COc1cccc(C(=O)Nc2ccc(NC(=O)c3ccc(C(C)(C)C)cc3)cc2)c1 -13.9%
COC(=O)C(CCSC)NC(=O)c1cc2c(n(-c3ccc(OC)cc3)c1=O)CC(C)(C)CC2=O (stereo unspecified) -13.7%
COc1ccc(S(=O)(=O)Nc2cccc(-c3ccc(N4CCCCCC4)nn3)c2)c(OC)c1 -0.36%
COc1cccc2c1Oc1ncccc1N(c1ccc(C(=O)NCc3cccc(C)c3)s1)C2 2.45%
CC1(C(=O)Nc2ncc(Cc3ccc(Br)cc3)s2)Cc2ccccc2C(=O)O1 (stereo unspecified) -7.89%
Cc1ccc(N2CC(NC(=O)C3CCCCC3)CC2=O)cc1C (stereo unspecified) -4.76%
CCC(C)NC(=O)c1ccc2nc(Cc3ccccc3)oc2c1 (stereo unspecified) 2.19%
COc1ccc(-c2nc3scc(CCNC(=O)Cc4ccc(F)cc4)n3n2)cc1 4.25%
O=C(Nc1cc(Cl)cc(Cl)c1)c1ccc(F)c(S(=O)(=O)NCc2ccccc2Cl)c1 1.9%
COc1cc(OC)c(Nc2c3c(nc4nc(-c5cccs5)nn24)CCCC3)cc1Cl 3.38%
CCN(c1ccccc1)S(=O)(=O)c1nnc(NC(=O)c2ccco2)s1 6.38%
Cc1ccccc1-c1nnc(SCC(=O)N2CCCCC2)o1 2.85%
CCOc1ccc(NS(=O)(=O)c2ccc3nc(-c4ccccc4)[nH]c3c2)cc1 -4.05%
Cc1ccc(-n2ncc(C(=O)Nc3c(Cl)cccc3Cl)c2C2CCNCC2)cc1 -6.29%
Cc1nn(-c2ccccc2)c2sc(C(=O)Nc3cccc(O)c3)cc12 11.1%
Cc1ccc(-c2nc(CS(=O)(=O)CC(=O)Nc3cc(C)ccc3C)c(C)o2)cc1 5.73%

Source: PubChem BioAssay AID493208 (National Center for Advancing Translational Sciences (NCATS), 2011)
